Measured values from ChEMBL document CHEMBL1157539, “Thousands of chemical starting points for antimalarial lead identification” (Nature, 2010).
In all, about 13,000 compounds were measured (“IFI”: median about 4, highest 2% from about 17 on). The list shows a part of the results.

Assay: GSK_TCMDC: Inhibition Frequency Index (IFI). The number of non-kinase HTS assays where a compound showed > 50 % inhibition, expressed as a percentage of the number of such assays in which the compound was tested (-0 is zero)
Type: functional

| Structure (SMILES) | IFI [%] |
| --- | --- |
| CCN(CC)CCCN(C(=O)Nc1c(Cl)cncc1Cl)c1nc(-c2ccc(F)cc2)cs1 | 9.52 |
| CN1CCOc2ccc(Nc3nnc(-c4cccc(-c5cccnc5)c4)o3)cc2C1 | 0 |
| COc1c(C2CCN(CCCCNC(=O)c3cccc(-c4ccc(C(F)(F)F)cc4)c3)CC2)ccc2c1CCCC2 | 10.5 |
| CN(C)Cc1ccc(-c2cccc(NC(=O)c3ccc(Cl)cc3)c2)cc1 | 3.92 |
| CC(C)C[C@H](NC(=O)c1ccc(OCCN2CCOCC2)cc1)C(=O)NC(/C=N/N1CCCC1=O)C(C)C (some centres not stated) | 5.45 |
| O=C(Nc1ccc([N+](=O)[O-])cc1)Nc1cc(OCC(F)(F)F)cc(OCC(F)(F)F)c1 | 9.6 |
| COc1cc(Cl)c(C)cc1N(Cc1ccccc1-c1ccccc1)S(=O)(=O)c1ccc(C(F)(F)F)cc1 | 0.7 |
| O=C(Nc1cc(Cl)cc(Cl)c1)Nc1ccccc1C(=O)NC1CCCCC1 | 11.7 |
| CCN(CCO)Cc1ccc(-c2ccc(NS(=O)(=O)c3cccc4cccnc34)cc2)cc1 | 4.17 |
| S=C(NCCCCCN1CCC(c2c[nH]c3ccccc23)CC1)Nc1cc(Cl)cc(Cl)c1 | 3.47 |
| Cc1nc(N)nc(N)c1CCCOc1ccccc1Br | 2.08 |
| CCN(CCO)CCCC(C)Nc1ccnc2cc(Cl)ccc12 (configuration not stated) | 0 |
| O=C(NCCCCCN1CCC(c2c[nH]c3ccccc23)CC1)Nc1cccc(I)c1 | 4.62 |
| CC1(C)N=C(N)N=C(N)N1c1cccc(Cl)c1 | 1.42 |
| N=C(N)c1ccc(-c2cc3ccc(C(=N)N)cc3[nH]2)cc1 | 0.72 |
| COC(=O)CCCCCOc1cc(Cc2cnc(N)nc2N)cc(OC)c1OC | 1.47 |
| O=C(Nc1ccc(F)cc1)NC1CCN(c2ccnc3cc(Cl)ccc23)CC1 | 1.59 |
| O=C(NC1CCCCC1)N(Cc1cccc(-c2ccc(CNCc3ccc4c(c3)OCO4)cc2)c1)C1CCN(Cc2ccccc2)CC1 | 5.84 |
| CCCCCCOc1ccc(/C(N)=N\Cc2ccccc2)c2c1CCCC2 | 13.3 |
| COc1ccc(C2CC(=O)C3=C(C2)NC(C)=C(C(=O)OC(C)C)C3c2ccccc2F)cc1OC (configuration not stated) | -0 |
| CC(C)(CNCc1cccc(Oc2cccc(C(F)(F)F)c2)c1)c1nc(-c2ccnc(N)n2)c(-c2ccc(Cl)c(O)c2)[nH]1 | 4.35 |
| COc1cccc(-c2csc(C(=O)NCC3CCN(Cc4ccc(C(C)C)cc4)C3)c2)c1 (configuration not stated) | 8 |
| COc1cccc(CN2CCCC(OC(c3ccccc3)c3ccccc3)C2)c1O (configuration not stated) | 5.08 |

| Structure (SMILES) | IFI [%] |
| --- | --- |
| COc1cc(OC)nc(-c2cccc(NC(=O)c3ccc4c(=O)n(CCN5CCCCC5)cnc4c3)c2)n1 | 3.03 |
| CCC(C)c1ccc(NC(=O)Nc2ccc(Cn3ncc(N4CCCNCC4)c(Cl)c3=O)cc2)cc1 (configuration not stated) | 11.8 |
| COc1cc(CCOc2c(C)nc(N)nc2N)cc(OC)c1OC | 2.17 |
| O=C(Nc1cccc([N+](=O)[O-])c1)N(Cc1ccc(Cl)c(Cl)c1)C1CCNCC1 | 1.52 |
| OC(CNc1ccnc(Nc2cccc(Cl)c2)n1)c1ccc(C(F)(F)F)cc1 (configuration not stated) | 11 |
| O=C(/C=C/c1ccc(Cl)c(Cl)c1)NCCCCCN1CCC(C(=O)Nc2ccc(Cl)cc2)CC1 | 12.3 |
| N#Cc1ccc(N2CCN(Cc3ccc(-c4ccc(-c5nc6ccccc6[nH]5)s4)cc3)CC2)nc1 | 2 |
| CC(O)C1CCCCN1C(=O)c1ccc(-c2cccc(-c3nc4cc(F)ccc4[nH]3)c2)cc1 (configuration not stated) | 5.61 |
| OCCN1CCN(Cc2cccc(-c3ccc(-c4nc5cc(C(F)(F)F)ccc5[nH]4)s3)c2)CC1 | 10.7 |
| CN1CCN(CC2(Nc3nccc(NCc4ccc(Cl)cc4Cl)n3)CCCCC2)CC1 | 35.7 |
| O=C(c1ccco1)N1CCN(c2nc(-c3ccc(Cl)cc3)nc3ccccc23)CC1 | 0 |
| Cc1cc2c3c(N)nc(N)nc3ccc2n1C(C)C | 3.6 |
| CC1(C)[C@H]2CC[C@@H](CNc3nc(NCCc4c[nH]cn4)nc(NCc4cc(F)ccc4F)n3)[C@@H]1C2 | 1.44 |
| COc1cccc(NC(=O)Cn2c(C)c(C(=O)C(F)(F)F)c3ccccc32)c1 | 0.68 |
| N#Cc1ccc(-n2cc(C(=O)Nc3ccc4c(c3)CCN(C3CCC3)CC4)c(C(F)(F)F)n2)cc1 | 7.46 |
| COc1cccc(C2CCN(CCN3CCC(NC(=O)c4ccc(-c5ccc(Cl)cc5)cc4)CC3)CC2)c1 | 3.57 |
| Cc1cccc2nc(-c3cccc(-c4ccc(NC(=O)CS(C)(=O)=O)cc4)c3)[nH]c12 | 1.8 |
| Nc1nc(N)c2c(Oc3cccc(Cl)c3)cccc2n1 | 5.04 |
| Cc1nc(C)c(-c2ccc(-c3ccc(F)cc3)cc2)c(O)c1Cl | 0.78 |
| COc1ccccc1N1CCN(CCCCNC(=O)c2ccc(NC(=O)c3ccc4ccccc4c3)cc2)CC1 | 5.51 |
| Cc1ccc2c(=O)n(C)c(=O)n(C)c2n1 | 0.76 |
| Cn1nc(-c2cccc(CNCc3ccccc3)c2)c2cnc(NC3CCCC3)nc21 | 4.76 |
| COc1ccc(-c2ccc([N+](=O)[O-])cc2C(=O)NCC(C)Oc2ccc(C(F)(F)F)cc2)cc1 (configuration not stated) | 4.5 |

| Structure (SMILES) | IFI [%] |
| --- | --- |
| CCCCc1cc(NCC)nc(Nc2ccc(OC)cc2)n1 | 7.04 |
| Fc1ccc2[nH]c(-c3ccc(-c4cccc(CN5CCC(CCN6CCCCC6)CC5)c4)cc3)nc2c1 | 6.94 |
| Cc1nc(-c2ccc(-c3ccc(C(=O)Nc4ccc(I)c(OCC5CCCN5C)c4)cc3)c(C)c2)no1 (configuration not stated) | 6.62 |
| Nc1nc(N)c2cc(N(Cc3ccccc3)Cc3ccccc3)ccc2n1 | 6.34 |
| Cc1ccc2nc3c(cc(C(=O)NCCc4ccccc4)c(=N)n3CCCOC(C)C)c(=O)n2c1 | 3.23 |
| CN(C)CCOc1ccc(-c2cc(-c3ccc(Cl)c(O)c3)c(-c3ccncc3)o2)cc1 | 10.4 |
| CN1CCN(CCCN(Cc2cccc(-c3cccc(CNC4CCCC4)c3)c2)C(=O)CCC2CCCC2)CC1 | 8.15 |
| Cc1cccc2nc(-c3ccc(-c4cccc(NC(=O)CCc5c[nH]cn5)c4)s3)[nH]c12 | 1.72 |
| Clc1ccc(C=NN=c2cc[nH]c3ccccc23)cc1 | 1.47 |
| Cc1ccccc1C1CCN(C2CCC(NC(=O)c3ccc(-c4cccc(C(F)(F)F)c4)o3)CC2)CC1 (configuration not stated) | 14 |
| O=C(CC1CCCC1)Nc1ccc2c(c1)CCC2 | 0.95 |
| CNC(=O)c1c(NC(=O)c2cccs2)sc2c1CCCC2 | 2.24 |
| CCN1CCC(N(Cc2ccc(-c3ccc(C(F)(F)F)cc3)cc2)C(=O)Cn2c(CCc3cccc(F)c3F)cc(=O)c3c2CCCC3)CC1 | 6.38 |
| COc1cc(CCNC(=N)/C=C/c2ccc(Cl)cc2)ccc1Cl | 5.8 |
| O=C(Nc1cccc2ccccc12)N1CCc2cc3nccc(N4CCN5CCC[C@H]5C4)c3cc21 | 2.86 |
| CCOc1c(CNCCCNc2cc(O)c3ccccc3n2)cc(Br)cc1OC | 3.01 |
| CCN(CC)CCCC(C)Nc1ccnc2cc(C#N)ccc12 (configuration not stated) | -0 |
| Cc1cc(N[C@@H](Cc2ccccc2)C(=O)NCCOc2ccccc2)nc(NCCc2cccs2)n1 | 11.6 |
| CN1CCC(C(=O)N(Cc2ccc(-c3ccc(CNCCc4ccc(S(C)(=O)=O)cc4)cn3)cc2)C2CCN(Cc3ccccc3)CC2)CC1 | 2.11 |
| CN(C)c1ccc(N2C(N)=NC(N)=NC23CCCC3)cc1 | 1.41 |
| COc1ccc(C(=O)N[C@@H](CC(C)C)C(=O)N[C@H](/C=N/NC(=O)c2ccccc2)CCc2ccccc2)cc1OCCN1CCOCC1 | 2.68 |
| CC(C)CCNC(=O)C1Cc2c([nH]c3cc(Br)ccc23)C2(CCN(CCc3ccccc3)CC2)N1 (configuration not stated) | 2.9 |
| CC(C)Oc1ccc(CCCON2C(=N)N=C(N)NC2(C)C)cc1 | 5.63 |

| Structure (SMILES) | IFI [%] |
| --- | --- |
| CN1CCN(c2ccnc3ccc(NC(=O)Cc4ccc5ccccc5c4)cc23)CC1 | 0.74 |
| CCc1cc(OC)c(C(=O)NC2CCN(C[C@H](O)c3ccnc4ccc(OC)cc34)CC2)cc1Br | 0.75 |
| O=C(/C=C/c1ccc(Cl)c(Cl)c1)NCCCCCCN1CCN(C(=O)Nc2cc(F)cc(F)c2)CC1 | 8 |
| Cc1ccc(O)cc1Nc1ccnc2cc(-c3nccs3)ccc12 | 9.03 |
| CCNc1cc(C(=O)N[C@@H](Cc2ccccc2)[C@H](O)CNCc2cccc(OC)c2)c(OC)c(N2CCCCS2(=O)=O)c1 | 2.9 |
| COc1cc2ncnc(Nc3ccc(OCc4ccccc4)c(C(F)(F)F)c3)c2cc1OC | 1.6 |
| CCN1CCN(c2cc(C)c3cc(NC(=O)c4cc(OC)cc(OC)c4)ccc3n2)CC1 | 4.03 |
| O=C(Nc1cc(C(F)(F)F)ccc1-n1cncn1)C1(c2ccccc2)CC1 | 3.06 |
| Nc1nc(N)c2c(ccc3nn(Cc4ccccc4)cc32)n1 | 2.88 |
| COc1ccc(CCNCC(O)COc2nccc3c(S(=O)(=O)N4CCCNCC4)cccc23)cc1OC (configuration not stated) | 4 |
| CCCNCc1ccc(-c2ccc(CN(Cc3cnc(C)cn3)C(=O)/C=C/c3ccccc3C)cc2)nc1 | 1.52 |
| CCn1c(Sc2ccc(C#N)c([N+](=O)[O-])c2)nnc1-c1cc(OC)cc(OC)c1 | 2.14 |
| COc1ccc(C23Oc4cc(OC)cc(OC)c4C2(O)C2(CC3c3ccccc3)SCCCS2)cc1 (configuration not stated) | 8.57 |
| O=C(NC1CCN(Cc2ccccc2)CC1)c1ccc(-c2nc3cc(Cl)c(Cl)cc3[nH]2)c(F)c1 | 0.74 |
| CCN(CCCN1CCCCC1)c1cc(C)nc(Nc2cccc3c2CCCC3)n1 | 6.41 |
| CCCN(Cc1nnc(-c2cccs2)o1)C(=O)C1COc2ccccc2O1 (configuration not stated) | 2.27 |
| O=C(/C=C/c1ccc(Cl)c(Cl)c1)NCCCCCCN1CCN(C(=O)Nc2ccc(Cl)c(C(F)(F)F)c2)CC1 | 7.2 |
| CCC(CC)n1cc2c(ccc3nc(N)nc(N)c32)n1 | 2.17 |
| COc1ccc2nc(-c3cc(-c4ccc(NC(=O)C(C)C)cc4)cnc3N)[nH]c2c1 | 6.43 |
| CN=C(Nc1c(Cl)cccc1Cl)N(C)C | 0.76 |
| O=C(NCCCCN1CCC(c2ccc3c(c2O)CCCC3)CC1)c1ccc(NC(=O)c2ccc(Cl)cc2)cc1 | 7.27 |
| Cc1nc(-c2nc(N3CCOCC3)ncc2-c2ccsc2)sc1C | 2.2 |
| O=C(Nc1cccc(CCNCc2ccccc2)c1)Nc1cccc2ccccc12 | 5.63 |
